One assay has as its system HSkMC. Briefly: cytotoxicity call (relative viability < 0.9). The settings on record: 10 µM.
Another assay deals with HepG2. Briefly: cytotoxicity call (relative viability < 0.9). The settings on record: 10 µM.
The next assay concerns S. aureus RN4220. Briefly: growth inhibition call (relative growth <= 0.2). The settings on record: 50 µM.

The list shows a part of the results.

`CCCNC(=O)N(C)C[C@H]1Oc2ncc(-c3ccc(C(=O)N(C)C)cc3)cc2C(=O)N([C@@H](C)CO)C[C@H]1C`: the cytotoxicity call in the assay on HSkMC and with HepG2 was “inactive” in each case. For the same molecule, the growth inhibition call in the assay with S. aureus RN4220 is “inactive”.

On to `C[C@H](CO)N1C[C@H](C)[C@@H](CN(C)Cc2ccc(C(=O)O)cc2)OCCCC[C@H](C)Oc2ccc(NC(=O)Nc3ccc(F)cc3)cc2C1=O`, for which the cytotoxicity call in the assay on HSkMC and in the assay with HepG2 was “inactive” each time. Moreover, in the assay with S. aureus RN4220, the growth inhibition call is “inactive”.

In the case of `O=S(=O)([O-])c1cc(I)c(O)c2ncccc12.[Na+]`, the cytotoxicity call in the assay on HSkMC was “inactive”. In addition, in the assay with HepG2, the cytotoxicity call is “active”. Also, the growth inhibition call in the assay with S. aureus RN4220 is “inactive”.

With `Cc1ccc(S(=O)(=O)N(C)C[C@H]2Oc3ccc(NC(=O)Cn4cnnn4)cc3C(=O)N([C@H](C)CO)C[C@H]2C)cc1`, the cytotoxicity call in the assay on HSkMC and in the assay with HepG2 was “inactive” in each case. In addition, the growth inhibition call in the assay on S. aureus RN4220 is “inactive”.

Turning to `NCc1ccc(-c2ncccn2)cc1`, the cytotoxicity call in the assay with HSkMC and in the assay on HepG2 was “inactive” in each case. Moreover, in the assay with S. aureus RN4220, the growth inhibition call is “inactive”.

Take `C[C@@H]1CCCCO[C@H](CN(C)C(=O)NC2CCCCC2)[C@H](C)CN([C@@H](C)CO)C(=O)c2cc(NC(=O)Nc3ccc(C(F)(F)F)cc3)ccc2O1`: the cytotoxicity call with HSkMC and in the assay with HepG2 was “inactive” in each case. Further, the growth inhibition call with S. aureus RN4220 is “inactive”.

On to `CCCN1C[C@H](C)[C@@H](O)[C@](C)(O)[C@@H](CC)OC(=O)[C@H](C)[C@@H](O[C@H]2C[C@@](C)(OC)[C@@H](O)[C@H](C)O2)[C@H](C)[C@@H](O[C@@H]2O[C@H](C)C[C@H](N(C)C)[C@H]2O)[C@](C)(O)C[C@H]1C`, for which the cytotoxicity call in the assay on HSkMC (human skeletal muscle cells) and with HepG2 was “inactive” in each case. For the same molecule, in the assay on S. aureus RN4220, the growth inhibition call is “active”.

For `C=CCON1C(=O)[C@@H]2[C@@H](C1=O)[C@@H]1C=C[C@@H]2O1`, the cytotoxicity call with HSkMC and with HepG2 was “inactive” each time. Further, in the assay on S. aureus RN4220, the growth inhibition call is “inactive”.

Values taken from the antibiotic and cytotoxicity screens of Wong et al. (2023).
